The text below walks through data of PubChem BioAssay AID602332 (National Center for Advancing Translational Sciences (NCATS), 2012).

The structures appear in SMILES notation. Values joined by “and” are separate entries in the source; they are usually repeats but may differ in a detail not shown here. Equal values may be shown once. In all, about 420,000 compounds went through this assay and about 75 (0.02%) were called active. Calls follow the shape of the dose curve; as a rule, active = well fitted activation curve with a large enough effect; inconclusive = small, poorly fitted or top-dose-only effect; inactive = no such curve, though single readings can be large or run the other way. The list shows a part of the results, in another mix than the full data.
Potency is read from the fitted curve at half-maximal effect.

A short description of this assay: qHTS for Inducers of the Endoplasmic Reticulum Stress Response (ERSR) in Human Glioma: qHTS. Also: nearly all actives have a fitted effect of over 35% in size. As to activation: % of control where 0% means no effect. The conditions noted are these: U87-MG GRP78 promoter luciferase reporter, 16 h; activation: hits give high values. The essentials: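 Stably transfected U87-MG glioma cells carrying a GRP78-based luciferase sensor; 16 h compound incubation. Luminescence end-point read 10 min after Bright-Glo addition at room temperature.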
(In general: Quantitative high-throughput screening tests each substance at several concentrations.)
In the case of `CCCCCN(CCCCC)C(=O)C(CCC(=O)O)NC(=O)c1ccc(Cl)c(Cl)c1` (stereo not given), the activation is inactive: -4.46% and inactive: 10%.

On to `COc1ccc(C(=O)Nn2c(SCC(=O)NCC3CCCO3)nc3ccccc3c2=O)cc1` (stereo not given), for which the activation is inactive: -12.9%.

`C[C@@H]1CC=C[C@H]2[C@H]1C(=O)N(Cc1ccccc1)[C@H]2c1ccc2ccccc2c1`: the activation is inactive: 1.28%.

Regarding `CCOC(=O)c1nnc(-c2ccccc2)nc1Sc1ccccc1Cl`, the activation was inactive: -14.9%. With `Cc1noc2ncnc(Sc3ccc(Cl)cc3)c12`, the activation is inactive: -14.8%. For `CCC1CC=CC2C1C(=O)N(Cc1ccccc1)C2c1ccoc1` (stereo not given), the activation is inactive: -12.7%. On to `O=C(c1cnccn1)N1CCC2(CCCN(C(c3ccccc3)c3ccccc3)C2)CC1`, for which the Potency is active: 44.7 µM.

`COc1ccc(C(=O)c2c(C(F)(F)F)oc3c2C(=O)c2ccccc2C3=O)cc1OC`: the activation was inactive: -14.4%. On the same count and under the same terms, the value for `C[C@]12CC[C@@H]3c4ccc(OC(=O)c5ccccc5)cc4CC[C@H]3[C@@H]1CC[C@@H]2O` was inactive: 0.365%; that for `CCC(C(=O)C(C)C(O)C(C)CCc1ccc(C)c(O)c1C(=O)O)C1OC(CC)(C2CC[C@@](O)(CC)C(C)O2)CC1C` (stereo not given in full) was inactive: 1.47%; that for `COc1ccc2cc(-c3cc(C(=O)O)c4ccccc4n3)ccc2c1` was inactive: -16%. On to `CCS(=O)(=O)c1ncc(Cl)c(C(=O)Nc2ccc(S(=O)(=O)N(C)c3ccccc3)cc2)n1`, for which the activation is inactive: -10.8% and inactive: -19.2%. Same read-out and setting: the value for `COc1cc(C2c3[nH]c4ccccc4c3CC3C(=O)N4C(Cc5c([nH]c6ccccc56)C4c4cc(OC)c(OC)c(OC)c4)C(=O)N32)cc(OC)c1OC` (stereo not given) was inactive: 5.7%; that for `CC[n+]1c(/C=C(/C)SC)sc2ccccc21` was inactive: -3.39%; that for `C[C@@H](CCc1ccc(O)cc1)NCCc1ccc(O)c(O)c1` was inactive: -2.2% and inactive: -1.45%. As for `COc1c(O)cc2oc(-c3ccc(O)c(O)c3)cc(=O)c2c1O`, the Potency is active: 20 µM. In the case of `Brc1ccc(-c2nc(-c3ccccn3)no2)o1`, the activation is inactive: -16.3%. Same read-out and setting: the same measure for `CC(C)(C)c1ccc(S(=O)(=O)/C=C/C#N)cc1`: inactive: -10.9%. On the same count and under the same terms, the value for `C#C[C@]1(O)CC[C@@H]2[C@H]3CCC4=Cc5oncc5C[C@]4(C)[C@@H]3CC[C@@]21C` was inactive: -2.71%. Take `NC(=Nc1ccccc1)NC(=O)c1nc(Cl)c(N)nc1N`: the activation was inactive: -4.22% [middle of 4 runs]. The same measure, in the same setting: the value for `Cc1ccc(CNC(=O)CCc2cn(C)c3ccccc23)cc1` was inactive: -1.39%; that for `COc1ccc(-n2nc3c(N4CCC(C(=O)NCc5ccccc5C)CC4)nnc(C)c3c2C)cc1` was inactive: -3% and inactive: -17.1%. In the case of `CN=c1nc(-c2ccccc2)n(-c2ccccc2)s1`, the activation was inactive: 5.81% and inactive: 3.99% and inactive: -14.6%. With `Cc1ccc(CS(=O)(=O)c2ncc(Cl)c(C(=O)Nc3ccc(OC(F)F)cc3)n2)cc1`, the activation was inactive: -18.5%. On the same count and under the same terms, the value for `O=C(CCl)N1CCN(S(=O)(=O)Cc2ccccc2)CC1` was inactive: -16.1%; that for `O=C(N/N=C/C=C/c1ccco1)c1cccnc1` was inactive: -2.31%. Same read-out and setting: the value for `C=C(CC)C(=O)c1ccc(OCC(=O)O)c(Cl)c1Cl` was inactive: 1.55%. The same measure, in the same setting: the value for `N#C/C(=C\c1ccc(O)c(O)c1)C(=O)Nc1ccccc1` was inactive: 9.78%; that for `CC(C)N(c1ccccc1)c1ccc(NC(=O)CCl)cc1` was inactive: -15.2%; that for `O=S1(=O)CCOC[C@H](CC2CCCCC2)N1Cc1ccccc1Br` was inactive: 2.66%. In the case of `O=C(CN1C(=O)c2ccccc2S1(=O)=O)c1ccccc1`, the activation is inactive: -14.6%. For `Brc1c(Br)c(Br)c2[nH]cnc2c1Br`, the activation is inactive: -7.46% and inactive: -10.6%.

In the case of `COc1ccc2nc(Sc3c([N+](=O)[O-])nc(C)n3Cc3ccccc3)[nH]c2c1`, the activation is inactive: -15.8%. As to `Cc1ccc(NC(=O)c2cc(S(=O)(=O)N(C)C)ccc2N2CCCC2)cc1F`, the Potency was active: 31.6 µM.

Regarding `CN(C)c1cccc(C(=O)Nc2nc3ccccc3[nH]2)c1`, the activation is inactive: -12.3%. On the same count and under the same terms, the value for `COc1ccc(-c2coc3cc(O)ccc3c2=O)cc1` was inactive: -4.56% and inactive: -3.91%; that for `CCOC(=O)/C=C/c1ccc(C(F)(F)F)cc1S(=O)(=O)NC(C)(C)C` was inactive: -1.97%; that for `NC(=NC1C2CC3CC(C2)CC1C3)Nc1ccc(I)cc1` (stereo not given) was inactive: -4.66% and inactive: -3.12%. Same read-out and setting: the value for `C#C[C@]1(O)CCC2C3CCC4=Cc5oncc5C[C@@]4(C)C3CC[C@@]21C` (stereo not given in full) was inactive: -3.76%. Still for that read-out and setting: the value for `Cc1cccc(C(=O)O/N=C(\N)c2ccccn2)c1` was inactive: -16.5%. Regarding `NC(=S)NN=C1CSSC1`, the Potency is active: 35.5 µM.

As to `O=C(Nc1nc2ccc(Cl)cc2s1)c1ccco1`, the activation was inactive: -13.6%. Take `O=C(c1ccncc1)N1CCC2(CCCN(C(c3ccccc3)c3ccccc3)C2)CC1`: the Potency was active: 35.5 µM. Regarding `OCCN1CCN(CC/C=C2/c3ccccc3Sc3ccc(C(F)(F)F)cc32)CC1`, the activation is inactive: -7.89% [middle of 4 runs]. For `COc1c(-c2coc3cc4c(cc3c2=O)CC(O)C(C)(C)O4)ccc2c1C=CC(C)(C)O2` (stereo not given), the activation is inactive: -12.6%. The same measure, in the same setting: the same measure for `CCn1c(/C=C/c2ccc([N+](=O)[O-])o2)nc2ccccc2c1=O`: inactive: -16.1%. As for `Oc1ccc(/C=C\c2cc(O)cc(O)c2)cc1`, the activation is inactive: -1.05% and inactive: -4.7%.

Turning to `NNCCc1ccccc1`, the activation is inactive: 4.09% and inactive: 2.6% and inactive: 1.3%.

For the molecule `CC(C)(C)c1ccc(C(=O)NC(=S)NNC(=O)c2cccs2)cc1`, the Potency was active: 14.1 µM. On to `Cn1cc([N+](=O)[O-])c(C(=O)Nc2cc(Oc3ccccc3)cc([N+](=O)[O-])c2)n1`, for which the activation was inactive: -14.3%. As for `Cc1ccc2nc(-c3cccc(N)c3)[nH]c2c1`, the activation is inactive: -13.7%. As to `O=C(NC1CCCC1)c1cc(-c2cccs2)on1`, the activation is inactive: 6.06%. `CCCOc1ccc(C(=O)C(CN2CCOCC2)c2ccccc2)cc1` (stereo not given): the activation was inactive: -14.8%. On the same count and under the same terms, the same measure for `CC1CC(C)(C)Nc2ccc(OC(=O)c3ccco3)cc21` (stereo not given): inactive: -15%; for `CC1=C(/C=C/C(C)=C/C=C/C(C)=C/C(=O)Nc2ccc(O)cc2)C(C)(C)CCC1`: inactive: -10.7% [middle of 5 runs].

Consider `CCCCCCCCCCCCCCC[C@@H](O)[C@@H](N)CO`, for which the activation is inactive: -0.315% and inactive: -3.87% and inactive: -2.63%.

As for `Cc1nc(N=Nc2ccc(C(=O)O)cc2)c(COP(=O)(O)O)c(C=O)c1O`, the activation was inactive: -10.4%. Regarding `C#C[C@@]1(O)CC[C@@H]2[C@@H]3CCC4=CC(=O)CC[C@@H]4[C@H]3CC[C@]21CC`, the activation is inactive: -5.03%. Still for that read-out and setting: the same measure for `O=C1c2c(O)cc(O)cc2OC(c2ccc(O)c(O)c2)C1O` (stereo not given): inactive: -1.59%; for `COc1cccc(-n2nnnc2S(C)(=O)=O)c1`: inactive: -15.8%. Take `CC(=O)CCS(=O)(=O)c1ccc(C)c(C)c1`: the activation is inactive: -18.2%. For the molecule `O=[N+]([O-])c1cnc(Sc2ccncn2)s1`, the activation was inactive: -16.1%. On the same count and under the same terms, the value for `CCOc1cc(/C=C2/COc3ccccc3C2=O)ccc1OCC(=O)N(C)C` was inactive: -2.83%. Still for that read-out and setting: the same measure for `COc1ccc([C@@H]2CNC(=O)C2)cc1OC1CCCC1`: inactive: -0.897% and inactive: -3.2% and inactive: -2.06%; for `CCN(CC)CCCC(C)Nc1c2ccc(Cl)cc2nc2ccc(OC)cc12` (stereo not given): inactive: -8.85%; for `Cn1c(-c2ccc(F)cc2)cnc1SCC(=O)N1CCCCC1`: inactive: -13.6%. Consider `C#C[C@]1(O)CCC2C3CCC4=Cc5oncc5CC4(C)C3CCC21C` (stereo not given in full), for which the activation was inactive: -1.7%.

Turning to `Cc1ccc(S(=O)(=O)/C=C\C#N)cc1`, the activation was inactive: -10.2%.

With `O=C(/C=C/Nc1ccc(F)cc1Br)c1ccccc1`, the activation was inactive: -13.8%. For the molecule `Cc1cc(=O)c2c(O)c3c(O)cc(O)c4c5c(O)cc(O)c6c(O)c7c(=O)cc(C)c8c1c2c(c34)c(c65)c78`, the activation is inactive: -5.87%. On the same count and under the same terms, the same measure for `Cc1ccc(C(=O)/C=C2\NCC(C)NC2=O)cc1` (stereo not given): inactive: -16.4%. Same read-out and setting: the same measure for `Cc1cc(NC(=O)c2ccc3c(c2)OCCO3)no1`: inactive: -17.8%; for `C=CCc1ccc(O)c(-c2ccc(O)c(CC=C)c2)c1`: inactive: -3.68% and inactive: -12.4% and inactive: -7.48%.

With `C=CCn1c(C)cc(C(=O)CSc2ccc(NC(C)=O)cc2)c1C`, the activation is inactive: -15.5%.

In the case of `CCOC(=O)Cn1c(=O)oc2cc(S(=O)(=O)NC(C)c3ccccc3)ccc21` (stereo not given), the activation is inactive: 9.07%. Same read-out and setting: the value for `O=c1cc(-c2ccc(O)cc2)oc2cc(O)cc(O)c12` was inactive: -3.02% [middle of 7 runs]; that for `Cc1noc(C)c1S(=O)(=O)N(C)C[C@H]1OCc2cnnn2CCCC(=O)N([C@H](C)CO)C[C@H]1C` was inactive: -2.25%. On the same count and under the same terms, the value for `c1ccc2c(c1)oc1c(Nc3ccc(CN4CCOCC4)cc3)ncnc12` was inactive: -15.1%; that for `O=C(COc1ccc2c(c1)OCO2)Nc1nccs1` was inactive: -14.6%. Turning to `C=CC[C@H](CC(=O)OC(C)(C)C)C(=O)OC[C@@H]1CCCN1C(=O)[C@H](CC=C)CC(=O)N[C@H](CO)Cc1ccccc1`, the activation was inactive: -3.51%. Take `Cc1ccccc1C(=O)N/N=C/c1ccc([N+](=O)[O-])s1`: the activation was inactive: -12.4%. Same read-out and setting: the same measure for `COc1ccc(C(=O)O/N=C(\N)c2ccccn2)cc1`: inactive: -18.8%; for `COc1cc(SC)ccc1C(=O)Nc1nccs1`: inactive: -14.4%. On the same count and under the same terms, the value for `O=C(Nc1ccccc1Cl)/C(Cl)=C(\Cl)S(=O)c1ccccc1` (stereo not given) was inactive: -18.9%. Turning to `O=C(CCCOc1ccccc1)N1CCN(c2ccccn2)CC1`, the activation is inactive: -14%.
